From ChEMBL document CHEMBL4888484, “Replenishing the malaria drug discovery pipeline: Screening and hit evaluation of the MMV Hit Generation Library 1 (HGL1) against asexual blood stage Plasmodium falciparum ,using a nano luciferase reporter read-out” (2022)
In all, about 150,000 compounds went through this assay and about 540 (0.36%) showed an effect of 50% or more. The list shows a part of the results.

Tested on: Plasmodium falciparum
Assay: Primary screen in NF54 nanoGlo assay, in single point, at 2uM, 72h; a lower Z score goes with more inhibition
Type: functional, Erythrocyte
Conditions: timepoint 72 hour

| Structure (SMILES) | % Inhibition | Z score |
| --- | --- | --- |
| CCCN(CC(=O)N(Cc1ccco1)C[C@H]1CCCO1)C(=O)c1ccc(C)cc1 | -8% | 1.14 |
| COc1ccc(OC)c(NC(=O)Cn2cnc3nc(N4CCCC4)sc3c2=O)c1 | -12% | 2 |
| O=C(Cn1ccc2ccccc21)N1CCN(c2ccc(-n3cncn3)nn2)CC1 | 17% | -2.18 |
| CCOC(=O)C1(NCc2nc(C)c(C)o2)Cc2ccccc2C1 | -8% | 1.12 |
| CCCc1cnc(C)nc1-c1ccccc1N(C)C | -17% | 1.65 |
| Cn1cc(C(=O)N[C@H]2CCCN(Cc3ccccc3)C2)ccc1=O | -8% | 1.23 |
| CC(C)[C@H](C)N(C)C(=O)C1(S(C)(=O)=O)CCC1 | -10% | 0.88 |
| C#CCOC[C@@H](O)CN(CCC(C)C)Cc1c(-c2ccccc2)noc1N(C)C(C)C | 8% | -1.52 |
| CC(C)Cc1cnc(NC(=O)N[C@@]2(C)CCOC2)s1 | 8% | -1.23 |
| Cc1ccc(Cl)c(CN2CCC[C@H](Cn3ccnc3C)C2)c1F | 3% | -0.47 |
| Cc1c(C2=CCN(S(C)(=O)=O)CC2)c2ccccc2n1Cc1ccc(F)cc1 | 8% | -1.03 |
| CC(C)c1ccc(-c2n[nH]nc2C(=O)c2ccccc2N)cc1 | 40% | -5.19 |
| CCc1nc(NC(=O)CCc2ccco2)sc1C | -11% | 1.53 |
| Cn1nc(C2CC2)nc1COc1cc(C(F)F)nc2ccc(Cl)cc12 | 31% | -4.48 |
| O=c1[nH]c2ccc(Br)cc2c(-c2ccccc2)c1-c1cc(-c2ccccc2)c2ccccc2n1 | -12% | 2.43 |
| C=CCn1c(N)c(C(=O)NCCc2ccc(OC)c(OC)c2)sc1=S | 0% | 0.06 |
| CCN(CC)c1ccc(C(=O)Nn2cc(C(=O)Nc3cc(Cl)c(OC)cc3OC)c3ccccc3c2=O)cc1 | -3% | 0.43 |
| COc1ccc(S(=O)(=O)N(C)c2ccnc(C(=O)N3CCCCCC3)c2)cc1 | -8% | 1.25 |
| CN(C)CCN(Cc1ccsc1)C(=O)c1ccc(-c2cnc(N)cn2)cc1 | -22% | 1.99 |
| Cc1cc(S(=O)(=O)N2Cc3c(C(=O)NCc4cccnc4)nn(C)c3C2)ccc1F | -2% | 0.4 |
| CNC[C@H]1CCCN1S(=O)(=O)c1cccc(C)c1Cl | -4% | 0.69 |

| Structure (SMILES) | % Inhibition | Z score |
| --- | --- | --- |
| CCOCCC(=O)NC1(CN2CCCCC2)CC1 | -9% | 1.85 |
| Cc1cc2c(cc1S(=O)(=O)N1CCC[C@H](C(=O)N3CCCCCC3)C1)OCC(=O)N2 | 3% | -0.55 |
| COCCNC(=O)N1CC[C@H](S(=O)(=O)c2ccccc2)C1 | -10% | 1.71 |
| Cc1cnccc1NC(=O)N1CCC[C@H]1c1ccc2c(c1)OCCO2 | -6% | 0.81 |
| Cc1ccc(NC(=O)Cn2cnc3cc4c(cc32)OCCO4)cc1C | -16% | 1.58 |
| COC[C@H]1CCN(Cc2ccc3ncccc3c2)C1 | -2% | 0.36 |
| CN1CC[C@H](N(C)Cc2cccc(OC(F)(F)F)c2)C1=O | -8% | 1 |
| Cn1cc(C(=O)c2cc3ccccc3o2)cn1 | -17% | 2.15 |
| COc1ccccc1[C@@H](NCc1cccnc1)c1ccco1 | -13% | 1.52 |
| COc1cccc2c(C(=O)N3C[C@H](N)C4(CCC4)C3)coc12 | 6% | -0.96 |
| Cc1noc(C)c1CC(=O)N1CCCCCC1 | -23% | 2.1 |
| NC(=O)c1cn2c3c(cc(Br)cc3c1=O)CC2 | -1% | 0.06 |
| CC1CNc2c(C(=O)N[C@@H]3C[C@H]3C3CCCCC3)cnn2C1 (stereo partly specified) | -5% | 0.61 |
| Cc1cccc(CO[C@]2(C(=O)NCC3CC3)CC(OCc3ccc(F)cc3F)[C@H](O)[C@H](O)C2)c1 (stereo partly specified) | -18% | 1.78 |
| C[C@@H]1CN(C(=O)c2ccc(Cl)s2)CC[C@@]1(O)C1CCOCC1 | 14% | -1.81 |
| Cc1cc(C(=O)N[C@@H](C)CCc2ccccc2)c2c(C)nn(-c3cccc(Cl)c3C)c2n1 | -7% | 0.74 |
| Cc1nc(C)c(C(=O)Nc2ccc3[nH]c([C@H](C)O)nc3c2)o1 | 7% | -0.88 |
| CC(C)c1ccc(C(=O)N[C@H]2CCOC[C@@H]2O)c(=O)n1C | 19% | -2.46 |
| CCc1ccc(CN(Cc2cc(C)no2)C2CC2)cc1 | -7% | 1.26 |
| CN1CCC[C@H](c2nc(-c3ccc(F)cn3)no2)C1 | -7% | 1.09 |
| Cc1cccc(Cl)c1OCCNC(C)(C)C | -19% | 2.44 |

| Structure (SMILES) | % Inhibition | Z score |
| --- | --- | --- |
| O=C(N[C@H]1CO[C@H]2[C@@H]1OC[C@@H]2Nc1nccc(-c2ccco2)n1)c1ccc2c(c1)OCO2 | -11% | 1.39 |
| C[C@@H]1CN(c2ccc(C(=O)N(C)C)cn2)C[C@H](C)N1C | -17% | 1.96 |
| O=C(Nc1ccc2c(c1)OCCO2)N1CCC[C@H](c2nnc3ccccn23)C1 | -12% | 1.17 |
| CN(C)c1nc(N)nc(CNC(=O)[C@]2(c3ccc(F)cc3)CC2(C)C)n1 | 6% | -0.85 |
| Cc1cccc(C)c1NC(=O)C1(NC(=O)CCc2cc(C(C)(C)C)c(O)c(C(C)(C)C)c2)CCCCC1 | -2% | 0.39 |
| CCCn1cc(CN/C(=N\c2cc(C)ccc2C)NC(=O)c2cccc(F)c2)c(C)n1 | 1% | -0.17 |
| CCC(C)N(CC(=O)N1CCc2sccc2C1COc1ccc(C)cc1)C(=O)c1ccc2c(c1)OCO2 (stereo unspecified) | -7% | 0.83 |
| CC(C)(C)OC(=O)N1CCN(C2CS(=O)(=O)C2)CC1 | 4% | -0.46 |
| Cc1nc(C)n(CCCn2cnc3cn(C)nc3c2=O)n1 | -2% | 0.31 |
| O=C(C[C@H](c1ccccc1F)c1c[nH]c2ccc(Cl)cc12)NCc1ccncc1 | 3% | -0.35 |
| O=C(NC[C@H]1COc2ccccc2O1)N1CCN(c2nccs2)CC1 | -8% | 1.26 |
| CC(C)(CCC(=O)N1CCn2ccnc2C1)C(=O)N1CCn2ccnc2C1 | 15% | -1.76 |
| CC(C)OCC(=O)Nc1nc2n(c1C(=O)OC(C)(C)C)CCCC2 | -14% | 2.1 |
| Cc1cc(C)nc(-n2nc(C)c3c2N(Cc2ccccc2F)C(=O)C[C@@H]3c2ccc(Cl)cc2)n1 | -9% | 1.23 |
| CCC(=O)N[C@@H]1c2ccccc2C2(CCN(C(=O)C3CCCC3)CC2)[C@H]1OCc1cccnc1 | 10% | -1.23 |
| Cc1nn(C)c(C)c1C(=O)C(=O)N(C)C1CCCCCC1 | -37% | 4.28 |
| CC1C(C(=O)N2CCCCC2c2nc(-c3ccccc3)c[nH]2)C1(F)F (stereo unspecified) | -1% | 0.15 |
| O=C1C2CCC(c3ccccc3)CC2C(=O)N1c1cccc2ccccc12 (stereo unspecified) | 6% | -0.75 |
| Cc1ccc(NS(=O)(=O)c2c(C)[nH]c(-c3nnc(C4CCC4)o3)c2C)c(C)c1 | 0% | 0.05 |
| Cc1cc(=O)c(C(=O)N[C@H](C#N)c2cc(Cl)cc(Cl)c2)c[nH]1 | 2% | -0.33 |
| Cc1nsc(NCCCOC2CCOCC2)n1 | -4% | 0.44 |

| Structure (SMILES) | % Inhibition | Z score |
| --- | --- | --- |
| Cc1ccc(OC2CCN(C(=O)NCc3ccncc3C)CC2)cc1 | -2% | 0.21 |
| CC(C)CCC(=O)N(C)Cc1ccc(Br)o1 | -10% | 1.57 |
| Cc1[nH]c2c(C)ccc3c2c1CCN1C(=O)OC2(CCCCC2)[C@@]31C | 2% | -0.25 |
| CCC[C@H](C)NC(=O)Nc1cccc(OC(F)F)c1 | -3% | 0.53 |
| COCC(=O)Nc1cc(C(=O)N2CCN(c3ccccc3)CC2)c2c(c1)ncn2CCc1ccccc1 | -7% | 1.03 |
| Cc1nc(Cc2ncnn2C2CCCCC2)cs1 | -10% | 1.77 |
| CC1CCCC(Nc2c(-c3ccsc3)nc3ccc(Cl)cn23)C1C (stereo unspecified) | -15% | 1.65 |
| COCCNc1ncccc1-c1noc([C@@H]2CCCN2C2CCCCC2)n1 | 9% | -1.01 |
| O=C(NCc1ccccc1)C1CC(=O)N(C2CC3CCC2C3)C1 (stereo unspecified) | 3% | -0.3 |
| CC(C)Cc1cc(NC(=O)CCC(F)(F)F)[nH]n1 | -1% | 0.13 |
| CN(C)C(=O)C[C@H]1CCCCN(Cc2ccccc2)C1=O | 0% | -0.06 |
| COc1ccc(CCC(=O)N2CCC[C@H](Oc3cc(C)nc(C)n3)C2)cc1 | 7% | -1.03 |
| Cn1ncnc1NC(=O)C1CCCCC1 | -7% | 0.97 |
| Cc1cccc(-c2noc(-c3cn(-c4ccc(C)c(C)c4)c(=O)c4ccccc34)n2)c1 | -2% | 0.27 |
| COc1ccc(N2CCN(C(=O)c3cc(NC(C)=O)cc4nc(C)ccc34)CC2)cc1 | -8% | 1.07 |
| CC(C)(C)C[C@H]1CCCN1c1ccncc1C(N)=O | -9% | 1.25 |
| O=C(CNCCN1CCCOC1=O)NC1CCCCCCC1 | -5% | 1.1 |
| COc1ccc(Cl)cc1C(=O)Nc1ccnn1C[C@H]1CCOC1 | 3% | -0.37 |
| Cc1ccc(C(C)NC(C)c2ncc(C(C)(C)C)o2)o1 (stereo unspecified) | -5% | 0.52 |
| CCCc1ccc(CN2CCC(c3cc[nH]n3)CC2)o1 | -8% | 0.95 |
